Laboratory results published in the supplement of paper PMC12217912.
Some of the results follow. The full chains were built here from the parent and the listed change. Inactive controls read about 0.05.

B1: TEV protease; numbered along this chain (parent)
chain: MGESLFKGPRDYNPISSSICHLTNESDGHTTSLYGIGFGPFIITNKHLFRRNNGTLVVQSLHGVFKVKDTTTLQQHLVDGRDMIIIRMPKDFPPFPQKLKFREPQREERICLVTTNFQTKSMSSMVSDTSCTFPSGDGIFWKHWIQTKDGQCGSPLVSTRDGFIVGIHSASNFTNTNNYFTSVPKNFMELLTNQEAQQWVSGWRLNADSVLWGGHKVFMVKPEEPFQPVKEATQL

Variants of: B1
Assay: raw area under fraction-flipped curve 0-4 h after induction (AUC4h, not background-subtracted), DNA-recorder readout of cleavage of the substrate (dimensionless); higher = more cleavage of the substrate by the protease variant
Settings: temperature: 34 °C; time window: 0-4 h after rhamnose induction
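Also: Bxb1 expression induced with 0.2% (w/v) L-rhamnose at OD600 near 0.5, cultures sampled hourly, flipped fraction per protease–substrate barcode pair counted by paired-end Illumina sequencing.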

Row | Variant | area with substrate EALYFQS | area with substrate ECLYFQS | area with substrate EDLYFQS | area with substrate EELYFQS | area with substrate EFLYFQS | area with substrate EHLYFQS | area with substrate EILYFQS | area with substrate EKLYFQS | area with substrate ELLYFQS | area with substrate EMLYFQS | area with substrate EPLYFQS | area with substrate ERLYFQS | area with substrate ESLYFQS | area with substrate ETLYFQS | area with substrate EVLYFQS | area with substrate EWLYFQS | area with substrate EGLYFQS | area with substrate EQLYFQS | area with substrate EYLYFQS
1 | L156H | 0.0573 | 0.0351 | 0.0458 | 0.0678 | 0.0856 | 0.0672 | 0.0823 | 0.0668 | 0.0558 | 0.0585 | 0.0562 | 0.0489 | 0.0597 | 0.0589 | 0.0585 | 0.0746 | – | – | –
2 | V157D | 0.051 | 0.0557 | 0.0638 | 0.0477 | – | – | 0.0416 | 0.0452 | 0.0302 | 0.0438 | 0.0567 | 0.0368 | 0.0451 | 0.0505 | 0.0502 | 0.0659 | 0.0458 | 0.0444 | 0.0515
3 | V157L | 0.104 | 0.0863 | 0.134 | 0.111 | – | 0.0936 | 0.0742 | – | – | 0.09 | 0.111 | 0.0993 | 0.0984 | – | 0.0867 | 0.126 | – | 0.0858 | 0.117
4 | V157S | 0.08 | 0.0673 | 0.0964 | – | 0.0553 | 0.077 | – | 0.0602 | 0.0574 | – | – | 0.0691 | 0.0748 | 0.0751 | 0.0545 | – | 0.097 | 0.0965 | 0.0696
5 | T176K | 0.0881 | 0.0656 | 0.077 | – | 0.0899 | 0.0799 | 0.0453 | – | – | 0.0919 | 0.12 | – | 0.0925 | 0.0468 | 0.0882 | 0.0546 | 0.0858 | – | 0.0575
6 | V183H | 0.0605 | 0.0539 | 0.0608 | – | 0.0474 | 0.0705 | 0.0658 | 0.0463 | 0.06 | – | – | 0.0544 | 0.0658 | – | 0.0581 | 0.0649 | 0.0635 | 0.0504 | –
7 | S154W | 0.0821 | 0.0774 | 0.0867 | 0.076 | – | – | 0.0691 | – | – | 0.0504 | 0.0843 | 0.0817 | 0.0648 | – | 0.0672 | – | 0.061 | – | 0.0848
8 | S154H | 0.123 | 0.103 | 0.11 | 0.12 | – | 0.108 | 0.0884 | 0.0908 | 0.0934 | – | 0.0974 | 0.0966 | 0.0984 | – | 0.0817 | – | 0.0708 | – | –
9 | Q151M | 0.119 | 0.132 | 0.117 | – | 0.103 | – | 0.107 | – | – | – | 0.102 | – | 0.13 | – | 0.107 | 0.104 | 0.0903 | – | 0.0671
10 | Q151E | 0.127 | 0.118 | 0.131 | 0.17 | – | – | 0.0752 | 0.101 | 0.0962 | 0.141 | 0.117 | 0.0814 | 0.0959 | 0.112 | – | – | – | 0.131 | –
11 | D161W | 0.0662 | 0.0624 | 0.0485 | 0.0868 | – | 0.0494 | 0.0629 | 0.0619 | 0.0444 | 0.0603 | 0.0544 | 0.0395 | 0.0559 | 0.0566 | 0.0598 | 0.0477 | 0.0572 | 0.0447 | –
12 | D161A | 0.0637 | 0.0578 | 0.0695 | 0.0274 | 0.0469 | 0.0849 | 0.0539 | 0.0484 | – | – | 0.0596 | – | 0.0585 | – | 0.0623 | – | 0.0725 | 0.0658 | 0.07
